PubChem BioAssay (NCI)
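Tested at 5 concentrations; 48 h exposure; 96-well plates; endpoints linearly interpolated, else capped at highest concentration. GI50 marks 50% less growth. At the TGI there is no net growth.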

Each compound was assayed on NCI-H322M lung (assay: growth of human tumour cells (NCI), 48 h).

**Q.** For O=C1[C@H]2Cc3c([nH]c4ccccc34)[C@@H](c3ccc(Br)cc3)N2C(=O)CN1C1CCN(Cc2ccccc2)CC1, which GI50 is on record?
**A.** 9.33 µM

**Q.** And the TGI?
**A.** > 25 µM

**Q.** With COc1ccc([C@H]2C(=O)N(c3cc(OC)c(OC)c(OC)c3)[C@@H]2c2ccc(OC)c(O)c2)cc1 as the compound, how does the GI50 read?
**A.** 0.0678 µM

**Q.** What about the TGI of the same compound?
**A.** > 100 µM

**Q.** Which results are given for CS(=O)(=O)c1nccc(-c2c(-c3ccc(F)c(OCCc4ccc(F)cc4)c3)nc3sccn23)n1?
**A.** GI50: 10.6 µM; TGI: 24.3 µM
